# According to paper PMC8251769, “Phosphonate as a Stable Zinc‐Binding Group for “Pathoblocker” Inhibitors of Clostridial Collagenase H (ColH)” (Chemmedchem, 2021):
# Biological target: ColQ1-CU (collagenase unit of ColQ1) (Bacillus cereus, UniProt B9J3S4)
# Assay: biochemical
structure (smiles),measurement,value
"CC(=O)c1ccc(NC(=O)CP(=O)(O)O)cc1 [compound 26, Disodium (2-((4-acetylphenyl)amino)-2-oxoethyl)phosphonate]",IC50,183 ± 7 µM
